# Experimental data: the supplement of paper PMC10126150
# Values marked as one replicate rest on one cluster of the flow cell; about a third of the high ones do not repeat.
# Tested on: ATP
# Experiment: switch fluorescence ratio, 500 uM ATP over buffer (Cy3 cluster intensity, sum of 5 cycles each) (fold (ratio)); higher = stronger signal-on switching upon ATP binding; sequences stand for … in TCGTCGGCAGCGTCAGATGTGTATAAGAGACAGTTTTTTTTTTTTTTTTTTTTTTTTT…TC
# Settings: aptamer strand: ATP DNA aptamer (quencher-CACCTGGGGGAGTATTGCGGAGGAAGG + anchor), 100 nM annealed; ATP concentration: 500 uM; one replicate
# How it was run: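 Switching-strand clusters labelled with Cy3 on a modified Illumina MiSeq flow-cell were annealed to 100 nM quencher-labelled ATP aptamer, imaged in selection buffer, and re-imaged after 15 min with 500 uM ATP at 22 °C. This was done over five cycles with NaOH stripping and re-annealing in between. The fluorescence ratio is summed target-cycle over summed buffer-cycle Cy3 intensity per cluster, averaged per switch-domain sequence, excluding clusters outside 100-1000 RFU.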
# 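Also: ATP exposure 15 min at 22 °C before imaging.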
row,Sequence,switch fluorescence ratio
1,TGACGCTAGG,1.03
2,TCAGAGCAAG,3.47
3,ACAAACGTTA,1.25
4,ATATAGAGCT,1.01
5,GTGGGTGGTT,0.997
6,GGCAGAGAAC,1.02
7,GTCAGGTATT,0.984
8,CAACCGAACG,1.34
9,TCTCAATGTT,1.04
10,TCTTTGAGAG,0.994
11,GCGGCCATTA,0.973
12,TTTGAAATGA,1
13,CCTATTCGAT,1.01
14,CATACCTCTG,1.02
15,CCAGTTGCTG,0.986
16,TTCAGGAGGT,0.973
17,TCCTAGGGCG,0.959
18,TTGGGTCTAG,1.01
19,GATAAGAGGG,0.968
20,CTAAGAGTTT,1.01
21,AAGATCGGG,1.07
22,CCTATAGTGA,1.16
23,CAAAACTTCG,1.27
24,TAGAAGCGGA,0.996
25,CGTTAGGTTG,0.988
26,GGAATACTAA,1.17

row,Sequence,switch fluorescence ratio
1,AGACGATCGA,0.941
2,GCACACTCAC,1.59
3,AGAAATGACT,1.01
4,AAAGAGGTAA,0.973
5,CTGTGTGGCA,0.985
6,ATGCTAATAA,1.01
7,ATAGGAAGCT,0.987
8,ATCGATGATG,0.981
9,TTAGCACTCT,1
10,AAAGTTGTGA,0.991
11,CACGGACGGT,1.39
12,ATAATACGAG,1.11
13,CAGGAATAG,1.63
14,CAACAAACT,1.02
15,ACGAATGACA,1.03
16,CGGGATGGAC,1.03
17,ATCCCGTAAC,1.29
18,CCCACTTCAT,1.08
19,CGTGAATTTC,1
20,GGCTCGCGAT,1.51
21,CCTGGCCAAC,1.75
22,TCATCTGTTT,1.07
23,ATACCGCGAA,1.8
24,TATCTCAATC,1.05
25,GACAGTTAAT,0.988
26,GCGAGGCTGG,1.02

row,Sequence,switch fluorescence ratio
1,GCTTTCCTCT,1.17
2,GGCAATTGAT,0.99
3,AGCGTCCT,0.983
4,GTTCTTGTTT,0.968
5,CTCCACTTTA,1.16
6,CGGTCTTGTT,0.998
7,TCTTCAATCC,1.09
8,GGGTCTTCCG,1.03
9,TGCCAGTCAT,0.991
10,CAACCATCTT,1.34
11,CGAGAGGATA,1.03
12,GGGCCAGG,1.07
13,TTGTAAACG,1.01
14,CTTAAAAAAA,0.96
15,GTGTCTAGGT,1
16,GCTGCCTTAT,1.02
17,TGTGGCGTCA,1.04
18,TCGGAACTCA,1.03
19,TAGTAACTCG,0.991
20,GAGAATAGTT,1.01
21,CATCATCATT,1.03
22,GAGACTCGGA,1
23,TTACCCCAAG,1.06
24,AAGGGTAGCC,0.965
25,TATAGTCAAC,1.03
26,ACACTGAGGG,0.984

row,Sequence,switch fluorescence ratio
1,CGGTGGTGCC,0.977
2,TTTGAGGA,1.06
3,TCCACGCTTA,1.06
4,ACTATTTCGT,0.981
5,CTACTATTAT,1.01
6,TTGTGATGCG,1.04
7,CACGACGTAG,1.03
8,GACGATGTAG,1
9,TTACGCCACC,1.96
10,GGAGTCGAGC,0.98
11,GGAGTATATT,0.994
12,GTAAACAGGG,0.987
13,AGTTCGTGTC,0.973
14,AGAAGTGTCA,0.978
15,TTAGACATAG,1.06
16,TTGGTTGGCA,1.01
17,ACTAAAAACG,1.02
18,TCAGTGGGTC,0.954
19,AGCTAAACTT,1.05
20,TCTGGTAATC,1.09
21,AAAGAGGGAG,0.927
22,CGTTGTAGAA,0.978
23,TTCGTACTAG,1.02
24,GTGTGCAAGA,0.991
25,CAGCAATCAG,2.8
26,TGTGAACTCT,1.02

row,Sequence,switch fluorescence ratio
1,AGTTAAGTAG,0.971
2,AAATCATTGA,0.992
3,GGCAGATCAC,1.02
4,TGAGCCACCT,1.07
5,ATGTTCGCGT,0.966
6,GTGTACCGTG,0.98
7,CTAGTAGAAA,1.02
8,AGATTGAATA,1
9,AGTCTTAATG,1.02
10,AATCTGGTAT,1.01
11,CAAGTGGGGT,0.983
12,AGTGGGTAGC,1.04
13,AATAGGCGGG,1.01
14,GGCGATAATG,0.969
15,GGCCGAAGCT,1.02
16,ACGGGGTCTT,0.99
17,AGCTGCTCTG,0.975
18,ATGATCGGGG,0.967
19,TAAAGCTCTT,0.95
20,TCCAGAGGGT,1.01
21,GGTTATCATG,1.01
22,GCCAGCACCA,1.03
23,AAGTACAGTT,1.24
24,TAACGAATTT,1.01
25,TCCTGGGGTT,0.986
26,TACTACCCTT,1.21

row,Sequence,switch fluorescence ratio
1,ACTTTAGTAC,1.01
2,TTTGGGG,0.975
3,TACGAGTCTG,0.998
4,AGTTAGTGTA,0.997
5,TCGCTATCCA,1.1
6,ACATTGGCCC,0.985
7,TACGTGGTGC,1.13
8,AAATATCAAA,0.998
9,TAACTATACG,1.24
10,ATCGCGACTC,1.17
11,TTTAACAAGT,0.996
12,TTGACACCAG,0.97
13,GGATAACCTT,1.66
14,CGTGAGGTAT,0.974
15,GCCCGTTGCT,1.04
16,TAATTGGCAG,0.989
17,GACGGCCCTA,1.02
18,TCGGGTGCCT,1.01
19,GGAATTAGCG,0.973
20,GGCGGACGGC,0.999
21,GGTACAAACT,1.06
22,TGCTTAATTA,0.929
23,GAGTCGTGTT,1
24,GTATGCATTT,0.973
25,TGTTGTCATT,0.955
26,ACGCGAGGTA,0.957

row,Sequence,switch fluorescence ratio
1,CCTTGGCCAT,1.27
2,AAGCGATGG,1.22
3,TAACTGTGTC,1.03
4,CTAGCCCTC,1.01
5,CGCACCATCA,1.01
6,GGCGGCCATT,1.01
7,CAATGAACGG,1.07
8,GGTTCACTTG,0.99
9,ATATGCCCGA,1
10,CGGTTGCCT,0.972
11,TCGTCCACTT,1.03
12,GGTTCTAGAT,1.01
13,CGCAGTTCCC,2.69
14,GTCGTTTCGG,1.04
15,GATTAATCGG,0.981
16,ATTTACTCTC,0.993
17,GATAATGCGA,1.03
18,TAGCAGGTGT,2.5
19,TGTGGGCGGC,1.03
20,CTGTTAGGCC,1.01
21,ATCTTCAGCA,1.09
22,ACGGCAGGGC,1.06
23,AGCAGCACTG,1.03
24,TAGGTGGGAA,0.997
25,GGGATGATCT,1.05
26,TGTCCGATGT,1.03

row,Sequence,switch fluorescence ratio
1,AGGTTACTTG,1.01
2,GGTTTGCCCT,0.97
3,TACTGATGTA,0.97
4,ATGTGGATCC,0.966
5,CCTCGGTGAC,3.38
6,CCAACAAGTT,1.01
7,AAGGTAAGCG,1
8,TTAAAGCGAA,1
9,CAATGTAGG,0.981
10,CGTGAGGGCT,0.965
11,TGCGCGGTGT,1
12,TCATTCATGC,1.04
13,TTATGTGATG,1.01
14,TATCGAAATG,1.01
15,ATAAAAAAGA,1.02
16,GGTTGTG,1.03
17,GAACCGTCGT,1.04
18,AGCGGTGGAG,0.994
19,GACTGTCCGG,0.969
